Article PMC4336329 (PLoS ONE, 2015)
The campaign covered roughly 310,000 compounds. About 2,200 (0.71%) showed an effect of 50% or more. The effect is printed as a negative number. The list shows a part of the results.

Molecular target: human ether-à-go-go-related gene (hERG) potassium channel (human, UniProt Q12809)
Experiment: primary screen, population patch clamp on CHO cells stably expressing hERG

human ether-à-go-go-related gene (hERG) potassium channel, sequence (Q12809 whole entry, looked up): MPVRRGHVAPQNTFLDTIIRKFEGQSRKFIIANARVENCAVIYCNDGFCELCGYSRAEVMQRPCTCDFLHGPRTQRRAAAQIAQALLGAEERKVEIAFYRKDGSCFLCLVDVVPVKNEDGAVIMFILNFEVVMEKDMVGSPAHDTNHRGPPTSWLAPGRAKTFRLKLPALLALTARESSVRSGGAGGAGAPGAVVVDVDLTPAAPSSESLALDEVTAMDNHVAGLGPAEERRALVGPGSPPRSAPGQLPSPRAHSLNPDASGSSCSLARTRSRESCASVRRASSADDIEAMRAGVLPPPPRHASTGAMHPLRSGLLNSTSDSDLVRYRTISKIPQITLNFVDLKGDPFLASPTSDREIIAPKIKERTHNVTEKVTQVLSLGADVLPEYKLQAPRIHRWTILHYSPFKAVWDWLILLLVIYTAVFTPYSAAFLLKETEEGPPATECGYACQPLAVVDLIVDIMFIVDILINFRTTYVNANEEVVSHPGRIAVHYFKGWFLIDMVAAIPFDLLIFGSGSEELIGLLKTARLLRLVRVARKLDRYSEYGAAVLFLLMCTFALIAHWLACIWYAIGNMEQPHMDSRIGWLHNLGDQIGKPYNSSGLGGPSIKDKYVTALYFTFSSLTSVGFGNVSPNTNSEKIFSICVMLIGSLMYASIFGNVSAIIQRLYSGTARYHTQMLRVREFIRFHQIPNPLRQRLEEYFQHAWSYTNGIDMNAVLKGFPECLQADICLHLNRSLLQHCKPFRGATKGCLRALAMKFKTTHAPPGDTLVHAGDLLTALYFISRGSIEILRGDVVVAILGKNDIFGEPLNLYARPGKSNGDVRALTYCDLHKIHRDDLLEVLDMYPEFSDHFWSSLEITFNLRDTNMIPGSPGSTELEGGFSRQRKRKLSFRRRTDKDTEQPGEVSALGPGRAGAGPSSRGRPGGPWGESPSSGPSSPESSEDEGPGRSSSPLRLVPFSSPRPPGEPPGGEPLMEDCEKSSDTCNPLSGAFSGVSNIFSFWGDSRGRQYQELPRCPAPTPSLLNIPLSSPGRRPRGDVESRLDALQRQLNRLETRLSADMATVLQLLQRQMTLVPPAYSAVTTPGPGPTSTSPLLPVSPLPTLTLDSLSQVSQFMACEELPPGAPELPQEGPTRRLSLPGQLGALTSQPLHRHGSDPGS

Row | SMILES | hERG current change (%, negative = inhibition) at 1uM [%]
1 | C#CCOCCOCCOCCNc1nc(N2CCN(C(=O)[C@H](CCC(=O)O)n3cc(C(N)CC(C)C)nn3)CC2)nc(N2CCN(C(=O)[C@H](Cc3ccc(O)cc3)n3cc(C(N)CC(C)C)nn3)CC2)n1.Cl (some centres unmarked) | -6.98
2 | CCn1cc(C(=O)NCCCN2CC(C)CC(C)C2)c(=O)c2cc(S(=O)(=O)N(C)C3CCCCC3)ccc21 (centres unmarked) | -91.4
3 | S=C(NCCc1ccccc1)Nc1ccccc1 | 12.7
4 | Cc1cc(-c2ccco2)n(CC(=O)NCc2ccccc2)n1 | 6.3
5 | CCCc1nc2oc3c(=O)[nH]cnc3c2c2c1CCCC2 | -9.7
6 | CCOC(=O)C(Cc1ccccc1)NC(=O)CCc1nnc2ccc(N3CCCC3)nn12 (centres unmarked) | 10.9
7 | Cc1ccc(C(C)C)c(OCC(=O)NN=C(CCl)CCl)c1 | 3.28
8 | CN(/N=C/c1ccc(Cl)cc1Cl)c1ncc(Cl)cc1C(F)(F)F | 11.2
9 | COC(=O)CN1C(=O)COc2ccc(Cl)cc21 | 12.7
10 | CCN1CCN(c2ncc3c(n2)CC(c2cc(OC)c(OC)c(OC)c2)CC3=O)CC1 (centres unmarked) | 11.7
11 | CN(C)c1ccc(/C=N/NC(=O)c2ccc(Cl)cc2)cc1 | 4.15
12 | CCc1ccc(N2C(=O)CC(c3ccc(F)cc3)C3=C2COC3=O)cc1 (centres unmarked) | -13.5
13 | CSc1ccccc1NC(=O)CN(C)S(=O)(=O)c1ccc(F)cc1 | -10.3
14 | COc1cc(OC)cc(C(=O)Nc2ccc(Nc3ccccc3)cc2)c1 | 6.05
15 | CC(C)(C)NC(=O)C(OC(=O)c1ccco1)c1ccc(Cl)cc1 (centres unmarked) | 12.2
16 | Cc1ccc(C(=O)NC2CCS(=O)(=O)C2)cc1S(=O)(=O)N1CCCCCC1 (centres unmarked) | -0.538
17 | Oc1[nH]c2ccccc2c1N=Nc1nc2ccccc2s1 | -3.26
18 | Cc1ccc(NC(=O)CCS(=O)(=O)c2cc3[nH]c(=O)c(=O)[nH]c3cc2C)cc1 | 16.9
19 | COC(=O)c1ccc2c(=O)n(CCCCCC(=O)N3CCN(c4ccccc4)CC3)c(=O)[nH]c2c1 | 10.4
20 | COc1ccc(NC(=O)COc2nsnc2N2CCCCC2)cc1 | 3.6
21 | Cc1ccc(C(=O)Cn2nc(C)c([N+](=O)[O-])c2C)c(C)c1 | 5.7

Row | SMILES | hERG current change (%, negative = inhibition) at 1uM [%]
22 | CCOc1ccc(NC(=O)CSc2nnc(-c3ccccn3)n2N)cc1 | 8.79
23 | O=C([O-])/C=C\C(=O)[O-].c1ccc2nc(N3CCNCC3)ccc2c1 | 16.2
24 | CC1(C)CC(=NOC(=O)c2ccccc2)CC(C)(C)N1 | -3.93
25 | Cl.Cn1nnnc1SCCNCc1ccccc1OCc1ccc(F)cc1 | -5.7
26 | Cc1ccccc1N1CCN(c2ccc(NC(=O)C3CCCCC3C(=O)O)cc2)CC1 (centres unmarked) | 1.66
27 | Cc1cc(C)n2nc(CNS(=O)(=O)c3ccc(C)c(C)c3)nc2n1 | 13.9
28 | CCn1c(N2CCN(S(=O)(=O)c3ccc(Cl)cc3)CC2)nc2ccccc21 | -12.7
29 | CCCC1=Nc2cc(C(=O)NCCN3CCOCC3)ccc2Sc2ccccc21 | 9.66
30 | Cc1nn(-c2ccc(C(F)(F)F)cn2)c(C)c1Oc1ccccc1O | 19.9
31 | CSCC[C@H](NC(=O)[C@@H]1CSC2c3ccccc3C(=O)N21)C(=O)NCc1ccco1 (some centres unmarked) | 9.46
32 | C=CCn1c(O)c(/C=N/NC(=O)CCCC)c(=O)[nH]c1=S | 8.61
33 | COc1ccc(NS(=O)(=O)c2cccc(NC(=O)c3ccccn3)c2)cc1 | 8.33
34 | O=C(CSc1ncn[nH]1)Nc1ccc(Br)cc1F | 10
35 | Cc1nn(-c2ccccn2)c2c1C(c1ccccc1Cl)C1=C(N2)c2ccccc2C1=O (centres unmarked) | 13.9
36 | COc1ccccc1/C=C1/C(=O)N(c2cc(C)cc(C)c2)C(c2cccc([N+](=O)[O-])c2)S1(=O)=O (centres unmarked) | 8.91
37 | CC(C)C(=O)NC(=S)N(Cc1ccccc1)Cc1ccccc1 | 5.69
38 | CCCC(=O)OCC(=O)Nc1ccccc1Sc1ccccc1 | 11.1
39 | Cc1nn(Cc2c(Cl)cccc2Cl)c(C)c1C(=O)NCc1ccc(C)n1C | 10.9
40 | O=C(COC(=O)Cc1n[nH]c(=O)c2ccccc12)Nc1ccc(Cl)cc1F | 9.45
41 | O=C(CNC(=O)c1ccc(Cl)cc1)OCC(=O)c1ccc2c(c1)OCCO2 | 5.82
42 | CN1CCN(C(=O)C2CCN(S(=O)(=O)c3cnc[nH]3)CC2)CC1 | 9.97

Row | SMILES | hERG current change (%, negative = inhibition) at 1uM [%]
43 | O=C(N/N=C/c1cccc(F)c1)c1cc(-c2ccco2)nc2ccccc12 | 10.3
44 | O=C(CN1C(=O)C2C3C=CC(C3)C2C1=O)NCc1ccc2c(c1)OCO2 (centres unmarked) | 11.4
45 | COc1ccc(CN(C)C(=O)Cc2ccc(OC)c(S(=O)(=O)N3CCOCC3)c2)cc1 | 2.67
46 | COc1ccc(OC)c(NP(=O)(Oc2ccc(Cl)cc2)Oc2ccc(Cl)cc2)c1 | 9.77
47 | CC(Cc1ccccc1)C(=O)N1CCN(C)CC1 (centres unmarked) | 7.74
48 | CC(=O)N1c2ccc(S(=O)(=O)N3CCCC(C(=O)NCc4ccccc4Cl)C3)cc2CC1C (centres unmarked) | 8.84
49 | CCOC(=O)c1c(NC(=O)Cn2nc([N+](=O)[O-])c(Br)c2C)sc2c1CCC(C)C2 (centres unmarked) | 7.71
50 | CCCCc1[nH]c(=O)c(C#N)c2c1CSC(C)(C)C2 | 20.1
51 | CC(C)(C)OC(=O)N[C@@H](Cc1ccccc1)C(=O)NCC1CCC(C(=O)N[C@@H](CC(=O)O)C(=O)O)CC1 (some centres unmarked) | 20.9
52 | COCCNC(=O)CN(CCc1ccccc1)S(=O)(=O)c1ccc(Br)cc1 | 10.1
53 | CSc1ncccc1C(=O)OCC(=O)c1cccc(Br)c1 | 5.99
54 | COc1ccc(N(CC(O)Cn2c(C)nc3ccccc32)S(=O)(=O)c2ccc(C)cc2)cc1 (centres unmarked) | 0.744
55 | Nc1c2c(nc3sc4c(c13)CCCCC4)CCCCC2 | -11
56 | COc1ccc(CCNC(=O)/C=C/c2ccc(S(=O)(=O)N3CCOCC3)cc2)cc1 | -19.4
57 | COc1ccc(-c2oc3ncn4nc(COc5ccccc5)nc4c3c2-c2ccc(OC)cc2)cc1 | -1.56
58 | Nc1[nH]c2cc([N+](=O)[O-])ccc2c1-c1ccccn1 | 15.8
59 | Cc1nc(SCc2ccccc2F)c2oc3ccccc3c2n1 | 17.7
60 | Cc1cccc(/C=C/c2onc(C)c2S(=O)(=O)N2CCC(C(=O)N3CCCCC3)CC2)c1 | 16.7
61 | Cc1cccc2sc(N(CCCN(C)C)C(=O)CN3C(=O)c4ccccc4C3=O)nc12.Cl | 9.95
62 | COC(=O)C1=C(C)NC(C)=C(C(=O)OC)C1C(=O)OC1CCCCC1=O (centres unmarked) | 11.6
63 | O=CN1CCN(C(=O)c2ccc3c(c2)OCO3)CC1 | 10.3

Row | SMILES | hERG current change (%, negative = inhibition) at 1uM [%]
64 | CCCc1cc(=O)[nH]c2nnc(SCC(=O)Nc3nccs3)n12 | 6.79
65 | O=C(Oc1ccc2c3c(c(=O)oc2c1)CCC3)c1ccccc1[N+](=O)[O-] | 3.77
66 | Cc1ccc(S(=O)(=O)NC(=O)NCCCCNC(=O)NS(=O)(=O)c2ccc(C)cc2)cc1 | -4.19
67 | CC(C)N(Cc1nc(-c2ccc(Cl)cc2)no1)C(=O)C(c1ccccc1)c1ccccc1 | 2.68
68 | Cc1cc(NC(=O)C2CCCN(S(=O)(=O)c3c(C)noc3C)C2)no1 (centres unmarked) | 17.4
69 | COc1ccc(N2CCN(c3nc(=S)n(-c4ccccc4)c(C)c3C(C)=O)CC2)cc1 | 10.2
70 | O=C(NNC(=O)C1CC(=O)N(c2ccc3c(c2)OCCO3)C1)c1ccc(F)cc1 (centres unmarked) | 3.92
71 | Cc1ccc(N=C2NC(=O)/C(=C/c3cccn3C)S2)cc1 | 6.27
72 | Cc1ccccc1CN(C)CC(=O)Nc1cccc(S(=O)(=O)N(C)c2ccccc2)c1 | 5.5
73 | O=C(OCc1csc(-c2ccccc2)n1)C1=NN(c2ccccc2)C(=O)CC1 | 11.3
74 | CC(C)n1c(SCC(=O)N2CCN(C(=O)c3ccco3)CC2)nc2c1c(=O)n(C)c(=O)n2C | -29.4
75 | Cc1[nH]c2c(C)cccc2c1CN1CCC(CO)(Cc2ccccc2)CC1 | -11.4
76 | COC(=O)CCC(=O)Nc1cc(S(=O)(=O)Nc2ccc(Cl)cc2)ccc1N1CCOCC1 | -5.33
77 | CC(C)(C)C(=O)Nc1ccccc1C(=O)OCC(=O)c1ccc2c(c1)OCCO2 | 11.3
78 | COc1ccc(CCN2CC(C(=O)OC(C)C(=O)Nc3cccc(Cl)c3)CC2=O)cc1OC (centres unmarked) | 3.22
79 | CC(C(=O)Nc1ccc(OCc2ccccc2)cc1)N1CCCC1 (centres unmarked) | 1.5
80 | Cc1ccc(Cn2ccc(O)c(Cc3ccccc3)c2=O)cc1 | 9
81 | COc1ccc(CCNC(=O)CCc2nc3sc4c(c3c(=O)[nH]2)CCCC4)cc1 | 9.73
82 | O=C(CC12CC3CC(CC(C3)C1)C2)NC(=S)NCc1ccco1 | 6.74
83 | O=C(/C=C/c1ccc2ccccc2n1)N1CCN(S(=O)(=O)c2ccccc2F)CC1 | 5.12
